Assay results as given in PubChem BioAssay AID445 (National Center for Advancing Translational Sciences (NCATS), 2006).
Hit rate of the full screen: of about 110,000 compounds, about 40 (0.04%) were called active. Inconclusive results, whose numbers are uncertain, are shown with a selection of clear calls. Calls follow the shape of the dose curve; as a rule, active = well fitted curve in the direction sought with a large enough effect in the signal ratio (not every such curve was filed as active); inconclusive = small, poorly fitted or top-dose-only effect, or a change in a side signal; inactive = flat fitted curve, though single readings scatter; the % refers to the signal ratio. A potency beside an inconclusive call is a rough fit, not a confirmed value.
Potency is read from the fitted curve at half-maximal effect.

Test: IkB Signaling;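 as to IkBa stabilization activation: 0% = basal untreated cells and 100% = reference inhibitor full response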
Conditions: ABC-DLBCL IkBa-CBG/CBR dual luciferase ratio (green luciferase fused to IkBa over red control in OCI-Ly3 lymphoma cells), 4 h; IkBa stabilization activation: at 57.1 µM (top of the series), scaled: untreated 0%, proteasome inhibitor 100% unless noted
How it was run: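 Curves were fitted separately to fusion (green), unfused (red) and ratio luminescence, then classed by r2, magnitude and activity. Cells: OCI-Ly3, 4 h compound plus doxycycline at 37C; 10 uM MG-132 defined full response.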
With `CCc1ccc(NC(=O)c2nc3nc(C)cc(C(F)F)n3n2)cc1` the “IkBa stabilization activation” value was inactive: -0.915%. For `Cc1ccc(S(=O)(=O)N2CC=C(c3c(C)n(CC(=O)N4CCCC4)c4ccccc34)CC2)cc1C`, the IkBa stabilization activation was inconclusive: 1.39% [signal inhibitor]. In the case of `COc1cc(OC)cc(C(=O)NCCc2csc3nc(-c4ccccc4F)nn23)c1`, the IkBa stabilization activation is reported as inconclusive: 1.51% [signal inhibitor]. In the case of `COc1cc2c(cc1OC)-c1cc(N3CCCCCC3)nc(=O)n1CC2`, the “IkBa stabilization activation” value is reported as inactive: -1.75%. With `Cc1sc(-n2cccc2)c(C(C)NC(=O)Nc2cccc(C(F)(F)F)c2)c1C` (centres undefined) the IkBa stabilization activation was inconclusive: -0.37% [signal inhibitor]. In the case of `O=C(CCC(=O)N1CCSc2ccccc21)Nc1ccc(Cl)cc1`, the “IkBa stabilization activation” value is reported as inactive: -4.66%. With `O=C(Nc1ccc(F)cc1)c1cc(S(=O)(=O)N2CCCCC2)cs1` the IkBa stabilization activation was inconclusive: 3.14% [signal inhibitor]. For `COc1ccccc1CNS(=O)(=O)c1cc(Br)cc2c1N(C(=O)C1CC1)CC2`, the IkBa stabilization activation was inconclusive: -0.621% [signal inhibitor]. With `NC(N)=NC(N)=Nc1ccccc1` (tested in a mixture with another compound) the IkBa stabilization activation was inactive: 0.288% [at 11.4 µM, scaled: untreated 0%, proteasome inhibitor 100%]. In the case of `Cc1cc(C)c2sc(NC(=O)c3ccc(S(=O)(=O)N4CCCC4)cc3)nc2c1`, the IkBa stabilization activation is reported as inconclusive: 0.793% [signal inhibitor]. With `CCOC(=O)c1cccc(NC(=O)CCc2nc3cccnc3n2-c2ccccc2)c1` the “IkBa stabilization activation” value was inactive: 0.635%. In the case of `CN[C@@H](CC(C)C)C(=O)N[C@@H]1C(=O)N[C@H](CC(N)=O)C(=O)N[C@H]2C(=O)N[C@H]3C(=O)N[C@H](C(=O)N[C@H](C(=O)O)c4cc(O)cc(O)c4-c4cc3ccc4O)[C@H](O)c3ccc(c(Cl)c3)Oc3cc2cc(c3O[C@@H]2O[C@@H](CO)[C@@H](O)[C@@H](O)[C@H]2O[C@H]2C[C@](C)(N)[C@H](O)[C@H](C)O2)Oc2ccc(cc2Cl)[C@@H]1O`, the “IkBa stabilization activation” value is reported as inactive: 0.935%. In the case of `COc1ccc(Oc2ncc3nc(-c4ccc(F)cc4)c(=O)n(Cc4cccs4)c3n2)cc1`, the IkBa stabilization activation is reported as inactive: 2.75% [at 11.4 µM, scaled: untreated 0%, proteasome inhibitor 100%]. In the case of `CC(C)(C)c1ccc(-c2nc(C#N)c(NCc3ccncc3)o2)cc1`, the IkBa stabilization activation is reported as inconclusive: -0.0589% [signal inhibitor]. In the case of `COc1ccccc1C(=O)Nc1nc2nc(C)cc(=O)n2[nH]1`, the IkBa stabilization activation is reported as inconclusive: 1.5% [signal inhibitor]. For `O=C1C(SCCO)=C(SCCO)C(=O)c2ccccc21`, the IkBa stabilization activation was inconclusive: 1.35% [signal inhibitor] and the Potency was inconclusive: 7.94 µM [rising, partial curve]. For `COc1ccc(OC)c(S(=O)(=O)Nc2ccc3c(c2)n(C)c(=O)n3C)c1`, the IkBa stabilization activation was inconclusive: 9.44% [signal activator]. In the case of `CCOC(=O)c1c(C)oc2ccc(N(C(=O)c3ccncc3)S(=O)(=O)c3ccc(CC)cc3)cc12`, the Potency is reported as inconclusive: 5.01 µM. For `C=CCc1ccccc1OCC(O)CN1CCN(Cc2ccc3c(c2)OCO3)CC1` (centres undefined), the IkBa stabilization activation was inconclusive: 4.85% [signal inhibitor]. In the case of `CCOC(=O)c1c(C)[nH]c(CCC(=O)Nc2cc(Cl)ccc2OC)c1C`, the IkBa stabilization activation is reported as inconclusive: 2.92% [signal inhibitor]. With `COC(=O)c1cc(NC(=O)c2cc3c(-c4ccccc4F)nn(C)c3s2)cc(C(=O)OC)c1` the IkBa stabilization activation was inconclusive: -1.19% [signal inhibitor]. In the case of `Cc1nn(C(C)(C)C)c(OC(=O)c2ccc3c(c2)OCO3)c1S(=O)(=O)c1ccccc1`, the “IkBa stabilization activation” value is reported as inactive: -1.86%. With `O=C(c1cccs1)N1CCC(c2nc3ccccc3s2)CC1` the IkBa stabilization activation was inconclusive: 2.22% [signal inhibitor]. In the case of `COc1ccc(N2CCN(S(=O)(=O)c3ccc(CC(C)C)cc3)CC2)cc1`, the IkBa stabilization activation is reported as inconclusive: 6.11% [signal inhibitor]. With `CCOC(=O)c1c(NC(=O)CSc2nnc(-c3ccccc3)n2CC)sc(C(C)=O)c1C` the IkBa stabilization activation was inconclusive: 0.0378% [signal inhibitor]. In the case of `CCOc1ccc(NC(=O)Cn2c(=O)n(CCCC(=O)NCCc3ccc(Cl)cc3)c(=O)c3ccccc32)cc1`, the “IkBa stabilization activation” value is reported as inactive: -1.18%. With `Cc1ccc(Cn2c(SCC(=O)NCc3ccccc3)nc3ccsc3c2=O)cc1` the “IkBa stabilization activation” value was inactive: -2.49%. For `O=C(CSc1ncnc2ccccc12)N1CCN(c2ccccc2)CC1`, the IkBa stabilization activation was inconclusive: 6.34% [signal inhibitor]. In the case of `COc1ccccc1CNC(=O)CC(c1ccc(F)cc1)N1Cc2ccccc2C1=O` (centres undefined), the “IkBa stabilization activation” value is reported as inactive: 1.07%. For `CC(=O)c1c(N2CCN(C(=O)c3ccco3)CC2)nc(=S)n(-c2ccccc2)c1C`, the “IkBa stabilization activation” value was inactive: -0.841%. With `CCOC(=O)c1cccc(NC(=O)C(C)n2nc(C)c3c(C)n(-c4ccccc4)nc3c2=O)c1` (centres undefined) the IkBa stabilization activation was inconclusive: 0.192% [signal inhibitor]. In the case of `CCOC(=O)c1cc(C#N)c(NCc2ccccc2)nc1C`, the “IkBa stabilization activation” value is reported as inactive: -2.01%. With `Cc1oc(-c2ccccc2F)nc1CS(=O)(=O)CC(=O)N1CCN(c2ccccc2)CC1` the IkBa stabilization activation was inconclusive: 1.62% [signal inhibitor].
